Measured values published in PubChem BioAssay AID1346428 (National Center for Advancing Translational Sciences (NCATS), 2018).
Hit rate of the full screen: of about 48,000 compounds, about 1,200 (2.5%) were called active. About 2% were inconclusive and are not listed.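 The calls were made as follows: active = activation of at least 60% and not above a set upper limit (about 1 call in 100 departs from these limits); inconclusive = activation of 40% to 60%, or above that upper limit; inactive = activation under 40%.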 This is one part of the list.

What follows are molecules tested against Probable G-protein coupled receptor 32 (Homo sapiens) (UniProt O75388) (assay: qHTS for Agonists of Human Resolvin D1 Receptor DRV1). Conditions: CHO-K1 GPR32 beta-arrestin PathHunter luminescence, 90 min; at 76.9 µM; stronger effect = higher value; zero percent set by DMSO-only wells.
How it was run: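 Using DMSO wells as EC0, agonist-induced signal was taken as chemiluminescence from beta-Gal reconstituted upon beta-arrestin recruitment to GPR32 in CHO-K1 cells after 90 min compound treatment.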

Sequence of UniProt O75388 (O75388 whole entry, looked up): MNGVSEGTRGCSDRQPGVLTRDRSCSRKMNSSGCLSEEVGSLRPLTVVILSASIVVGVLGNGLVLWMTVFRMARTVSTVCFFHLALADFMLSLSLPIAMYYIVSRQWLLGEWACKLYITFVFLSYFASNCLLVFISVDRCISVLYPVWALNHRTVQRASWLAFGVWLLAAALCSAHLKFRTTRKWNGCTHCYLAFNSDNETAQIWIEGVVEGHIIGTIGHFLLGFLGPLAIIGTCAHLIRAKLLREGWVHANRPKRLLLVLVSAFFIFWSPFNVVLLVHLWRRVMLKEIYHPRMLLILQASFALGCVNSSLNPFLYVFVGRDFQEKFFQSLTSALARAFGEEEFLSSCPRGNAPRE

SMILES	activation
Cc1cccc(NC(=O)CSc2ccc(-c3ccccn3)nn2)c1	inactive: 4.67%
Cc1cccc(C)c1Nc1nn2c(=O)c3cc4c(cc3nc2s1)OCO4	inactive: 24.6%
CCc1ccc(N(CC)C(=O)c2cc3c(=O)oc4ccc(C)cc4c3s2)cc1	inactive: 35.7%
COc1cccc(NC(=O)C(=O)NCC(c2ccc3c(c2)OCO3)N2CCN(C)CC2)c1 (stereo not drawn)	inactive: -7.83%
COc1cccc(C(=O)Nc2cccc(OCc3cc(=O)n4c5c(sc4n3)CCCC5)c2)c1	inactive: -1.81%
CC(=O)Nc1ccc(NS(=O)(=O)c2c(C(=O)N3CCC(C)CC3)c(C)n(C)c2C)cc1	inactive: -12.9%
CCc1ccc(-c2cn3c(n2)sc2cc(C(=O)NC4CCCCC4)ccc23)cc1	inactive: 11.5%
COc1cccc(-c2nc(S(=O)(=O)c3ccc(Cl)cc3)c(NCc3ccccc3)o2)c1	inactive: -17%
COc1ccc(NC(=O)CCCSc2nc(-c3ccco3)cc(C(F)(F)F)n2)cc1OC	inactive: 16.7%
CCCCN(CC)CCCNC(=O)c1cc2c(=O)[nH]c3ccccc3c2n1C	inactive: -4.5%
COCCNc1oc(-c2ccccc2)nc1S(=O)(=O)c1ccc(Br)cc1	inactive: -25.5%
COc1ccc2oc(=O)c(C(=O)NCCc3c(C)[nH]c4ccc(F)cc34)cc2c1	inactive: 37.4%
O=c1c(-c2cc(-c3ccccc3)nc3c2COc2ccc(Cl)cc2-3)coc2ccc(F)cc12	inactive: -7.44%
O=C(Nc1nc2n(n1)C(c1ccc(F)cc1)C=C(c1ccccc1)N2)c1ccco1 (stereo not drawn)	inactive: 2.58%
Cc1c(Cl)cccc1NC(=O)c1ccc2c(c1)CCN2S(=O)(=O)c1ccccc1	inactive: -8.13%
Cc1c(C(=O)Nc2ccc(C(=O)O)cc2)nnn1-c1ccccc1	inactive: -11.6%
Cc1ccc(CN2CCCN(CC(=O)Nc3ccc(C)cc3C)S2(=O)=O)cc1	inactive: -2.92%
CSc1ccc(CCNC(=O)Cn2ccc3cc(S(=O)(=O)N4CCCCCC4)ccc32)cc1	inactive: 8.71%
CCCCSc1nnc2c(n1)OC(c1ccc(Br)s1)N(C(C)=O)c1ccccc1-2 (stereo not drawn)	inactive: -13.7%
CN(C)c1ccc(C(CNC(=O)c2ccccc2C(F)(F)F)N2CCOCC2)cc1 (stereo not drawn)	inactive: -9.74%
NC1CCN(c2nc3c(cc2F)c(=O)c(C(=O)O)cn3-c2ccc(F)cc2F)C1 (stereo not drawn)	inactive: -7.63%
CN(C)CCNc1ncnc2c1cnn2-c1cccc(Cl)c1	active: 87.2%
COc1ccc(CNC(=O)C2CCCN(S(=O)(=O)c3cccc4nsnc34)C2)cc1 (stereo not drawn)	inactive: 2.79%
